Laboratory results taken from the supplement of paper PMC10126150.
Values marked as one replicate rest on one cluster of the flow cell; about a third of the high ones do not repeat.
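Further: ATP exposure 15 min at 22 °C before imaging.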

Each sequence was assayed on ATP (assay: switch fluorescence ratio, 500 uM ATP over buffer (Cy3 cluster intensity, sum of 5 cycles each) (fold (ratio)); higher = stronger signal-on switching upon ATP binding; sequences stand for … in TCGTCGGCAGCGTCAGATGTGTATAAGAGACAGTTTTTTTTTTTTTTTTTTTTTTTTT…TC). Conditions: aptamer strand: ATP DNA aptamer (quencher-CACCTGGGGGAGTATTGCGGAGGAAGG + anchor), 100 nM annealed; ATP concentration: 500 uM; one replicate.
Procedure, shortened: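 Imaging in selection buffer was followed by imaging after 15 min with 500 uM ATP at 22 °C, for Cy3-labelled switching-strand clusters annealed to 100 nM quencher-labelled ATP aptamer on a modified Illumina MiSeq flow-cell. Five of these buffer/ATP cycles ran, separated by NaOH stripping and re-annealing. The fluorescence ratio per cluster is summed target-cycle over summed buffer-cycle Cy3 intensity, averaged per switch-domain sequence; clusters outside 100-1000 RFU were removed.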
For ATATATTTCC, the switch fluorescence ratio was 1.06.
Sequence CTAGCGAACG has a switch fluorescence ratio of 1.07.
For TATGGGCAT, the switch fluorescence ratio was 1.06.
Work on CGCTGTTATT yielded a switch fluorescence ratio of 0.992.
For TGGCTGGTG, the switch fluorescence ratio was 1.1.
With TAACGTTAAG the switch fluorescence ratio was 1.04.
With TCATTTGAAC the switch fluorescence ratio was 0.995.
ATTCTACCGT showed a switch fluorescence ratio of 0.987.
In the case of GCTAAAAGAG, the switch fluorescence ratio is reported as 0.992.
For TGCTTGTCTG, the switch fluorescence ratio was 0.997.
GGAACACCGT gave a switch fluorescence ratio of 0.927.
GTCTACATG was tested, and the switch fluorescence ratio was 0.982.
CCCCTTCACG gave a switch fluorescence ratio of 1.14.
CTGTGGGAGG showed a switch fluorescence ratio of 0.987.
Work on TATGCATGGC yielded a switch fluorescence ratio of 1.22.
GAATTTGGCT was tested, and the switch fluorescence ratio was 0.967.
In the case of CGGAGGAGTC, the switch fluorescence ratio is reported as 1.01.
Sequence ACCACCGCGG has a switch fluorescence ratio of 1.06.
With TAGTTGCTT the switch fluorescence ratio was 0.974.
TATGAACGTG showed a switch fluorescence ratio of 0.998.
For TTCGGTCCAT, the switch fluorescence ratio was 1.01.
With CGCGGCTTCT the switch fluorescence ratio was 0.996.
Work on GAGGGACCAA yielded a switch fluorescence ratio of 1.02.
For ATCTGAAAGA, the switch fluorescence ratio was 0.969.
Work on TGCGATACTT yielded a switch fluorescence ratio of 2.44.
For CTACTAACTT, the switch fluorescence ratio was 1.14.
Sequence AGGGGCAGTG has a switch fluorescence ratio of 0.99.
Sequence GATCAGATT has a switch fluorescence ratio of 1.
Sequence ATGGACCGTA has a switch fluorescence ratio of 0.974.
Sequence TTCAGTACTA has a switch fluorescence ratio of 0.99.
With ACAATCTTAG the switch fluorescence ratio was 1.01.
For ATTGCCATTC, the switch fluorescence ratio was 0.967.
Sequence ATGCTATAT has a switch fluorescence ratio of 1.01.
GCTCGAGCAA gave a switch fluorescence ratio of 1.04.
In the case of AGTTAAATGG, the switch fluorescence ratio is reported as 1.01.
CACGGCCAGC was tested, and the switch fluorescence ratio was 1.11.
GGTGAGTTT showed a switch fluorescence ratio of 0.997.
Work on TACGTCAGGG yielded a switch fluorescence ratio of 1.13.
For CCAGTAGGGG, the switch fluorescence ratio was 1.03.
CCACGGGGAT gave a switch fluorescence ratio of 0.989.
CTAAATTGA was tested, and the switch fluorescence ratio was 0.966.
AAAACATTCC was tested, and the switch fluorescence ratio was 2.18.
TAGCTGCTGT was tested, and the switch fluorescence ratio was 1.02.
TTAGACGAAC showed a switch fluorescence ratio of 1.39.
GGGCATTGCA was tested, and the switch fluorescence ratio was 1.01.
Sequence CGCATGGATA has a switch fluorescence ratio of 0.999.
ACTGACGGCG was tested, and the switch fluorescence ratio was 1.19.
CGTGGTCGTA gave a switch fluorescence ratio of 1.03.
Work on CGGTTCTTTC yielded a switch fluorescence ratio of 1.03.
CTACGTAAGG was tested, and the switch fluorescence ratio was 1.35.
TTACTATCCT gave a switch fluorescence ratio of 1.07.
Work on TGGTTCCGAC yielded a switch fluorescence ratio of 1.2.
TTCCTACAG showed a switch fluorescence ratio of 1.11.
With TCTTGTGGCG the switch fluorescence ratio was 1.01.
For AGGACTCACG, the switch fluorescence ratio was 1.13.
Work on TGTCTGACTT yielded a switch fluorescence ratio of 0.996.
TGGAACTTT was tested, and the switch fluorescence ratio was 0.96.
GACGATTAAT showed a switch fluorescence ratio of 1.03.
GTAGAAGCCC showed a switch fluorescence ratio of 1.02.
TTCAAATTTC showed a switch fluorescence ratio of 1.02.
Work on CTTAGACCGG yielded a switch fluorescence ratio of 1.01.
TCTGGGGCAG was tested, and the switch fluorescence ratio was 0.954.
For CGTGTCCTGT, the switch fluorescence ratio was 1.
ATCAAAGCT showed a switch fluorescence ratio of 1.05.
CCAGAGTGGG showed a switch fluorescence ratio of 1.07.
Work on GGAAGTACTA yielded a switch fluorescence ratio of 1.21.
GGTATAAGCG showed a switch fluorescence ratio of 1.02.
TTTCGTAATC showed a switch fluorescence ratio of 0.969.
Sequence GTTCGACCAT has a switch fluorescence ratio of 1.02.
In the case of GTAACAATGA, the switch fluorescence ratio is reported as 1.02.
In the case of GATCCGGTCA, the switch fluorescence ratio is reported as 1.04.
In the case of TCAACGGCAG, the switch fluorescence ratio is reported as 0.998.
Work on GCGGTGCACG yielded a switch fluorescence ratio of 1.
In the case of GGAAGCCACT, the switch fluorescence ratio is reported as 1.02.
GGGATACACT was tested, and the switch fluorescence ratio was 1.09.
TACGGACTTG showed a switch fluorescence ratio of 1.06.
For TTACTAAGGA, the switch fluorescence ratio was 1.01.
CTGTCGTAAG gave a switch fluorescence ratio of 1.05.
TCCATCGAGG gave a switch fluorescence ratio of 1.
Work on CCAGCGGGG yielded a switch fluorescence ratio of 1.06.
In the case of ATCACTCCCT, the switch fluorescence ratio is reported as 1.49.
ATAATCGGGT showed a switch fluorescence ratio of 0.982.
GGTGTGAATA showed a switch fluorescence ratio of 0.997.
In the case of CAAGCGAATG, the switch fluorescence ratio is reported as 1.02.
In the case of TCTTGGTAG, the switch fluorescence ratio is reported as 0.999.
CCCTAGGCAT was tested, and the switch fluorescence ratio was 1.21.
Sequence GTACACCAGT has a switch fluorescence ratio of 1.02.
CAGCCGCTCT showed a switch fluorescence ratio of 1.04.
AGATAGCGTA gave a switch fluorescence ratio of 1.
For CTGTTTTGAG, the switch fluorescence ratio was 1.
CAAATGTCTT gave a switch fluorescence ratio of 0.984.
For AGTGAATACG, the switch fluorescence ratio was 0.982.
Sequence AGGTTCGTTT has a switch fluorescence ratio of 1.01.
Work on GGTGGGGAC yielded a switch fluorescence ratio of 0.992.
Work on GCGGTTTTTA yielded a switch fluorescence ratio of 1.05.
Sequence ATCGTTACTT has a switch fluorescence ratio of 0.973.
AGAGGCGGAG showed a switch fluorescence ratio of 0.99.
In the case of AGGACACTTG, the switch fluorescence ratio is reported as 1.01.
Work on ATAGCCCACA yielded a switch fluorescence ratio of 0.983.
Work on TCAGATTTG yielded a switch fluorescence ratio of 0.996.
CGCTCACAAC showed a switch fluorescence ratio of 1.5.
TGCATGTATC was tested, and the switch fluorescence ratio was 1.06.
Sequence GGTTCCGGAA has a switch fluorescence ratio of 1.03.
Work on CCCGACTCGG yielded a switch fluorescence ratio of 0.972.
TCCAATAGAC was tested, and the switch fluorescence ratio was 2.27.
TGTTATTTGC showed a switch fluorescence ratio of 0.969.
CTGATGGGAG showed a switch fluorescence ratio of 1.03.
GTGATCTACA was tested, and the switch fluorescence ratio was 0.927.
With CGTGGACGAG the switch fluorescence ratio was 1.04.
In the case of TCGGCGTTTT, the switch fluorescence ratio is reported as 1.22.
GCGCCATCTA gave a switch fluorescence ratio of 1.04.
Work on TATTGGAAAA yielded a switch fluorescence ratio of 0.934.
Sequence TAGTTGATTT has a switch fluorescence ratio of 0.93.
In the case of TAAAGGAAGA, the switch fluorescence ratio is reported as 0.975.
In the case of TTTTATCGTT, the switch fluorescence ratio is reported as 1.
GTATACCTTT gave a switch fluorescence ratio of 1.01.
Sequence GACGAACTGA has a switch fluorescence ratio of 0.967.
For AAGTATCAGT, the switch fluorescence ratio was 0.955.
For ACTCATCCAT, the switch fluorescence ratio was 1.04.
With GCTCAGCTAG the switch fluorescence ratio was 1.25.
GTTGAATTGA showed a switch fluorescence ratio of 1.01.
For AAAGAACATG, the switch fluorescence ratio was 1.02.
AGCCGTGAGG was tested, and the switch fluorescence ratio was 0.993.
Sequence GTAATT has a switch fluorescence ratio of 0.971.
Sequence AACGCTG has a switch fluorescence ratio of 0.977.
In the case of TGGGGCGAGA, the switch fluorescence ratio is reported as 1.06.
Sequence CAAATGAAC has a switch fluorescence ratio of 1.58.
Sequence GTGCAAAGAT has a switch fluorescence ratio of 0.997.
Sequence AGTGAACTCA has a switch fluorescence ratio of 1.03.
GCAATAGAAG gave a switch fluorescence ratio of 1.07.
TCGCTTGGAA was tested, and the switch fluorescence ratio was 1.01.
ATAATGGTG gave a switch fluorescence ratio of 1.
Work on ACATCGTCCG yielded a switch fluorescence ratio of 1.05.
CCGGGATTTA showed a switch fluorescence ratio of 0.969.
In the case of CGTCGGATAC, the switch fluorescence ratio is reported as 3.89.
TTTAATTTCA gave a switch fluorescence ratio of 1.03.
For GATTCAACCA, the switch fluorescence ratio was 0.993.
Sequence ACAAATGGAG has a switch fluorescence ratio of 1.01.
ACTAGGTAAT showed a switch fluorescence ratio of 0.993.
Work on TCAGGATGTC yielded a switch fluorescence ratio of 1.11.
Work on CTATTCCAAC yielded a switch fluorescence ratio of 1.06.
With GCCATCCTC the switch fluorescence ratio was 1.22.
Work on AGAGAAACTG yielded a switch fluorescence ratio of 0.987.
TCTGGGTACG showed a switch fluorescence ratio of 1.01.
CATGCGGCG showed a switch fluorescence ratio of 0.956.
Sequence AGGAGTCAGT has a switch fluorescence ratio of 0.989.
AATTAGCCCA showed a switch fluorescence ratio of 1.08.
TTGAAAAACC showed a switch fluorescence ratio of 1.03.
With GTTGACGTAT the switch fluorescence ratio was 1.09.
For ATGTTGCACT, the switch fluorescence ratio was 1.01.
With GCAGTGTGA the switch fluorescence ratio was 1.04.
CGTCGTTTTG gave a switch fluorescence ratio of 0.962.
With ATAGACTAT the switch fluorescence ratio was 0.99.
CCAAGGCTGC showed a switch fluorescence ratio of 1.6.
With GTAGTATAAT the switch fluorescence ratio was 0.996.
Work on CCGTGGTTAG yielded a switch fluorescence ratio of 1.07.
GGCGGTACTT was tested, and the switch fluorescence ratio was 1.04.
With GATGTTCTT the switch fluorescence ratio was 0.952.
Sequence TTCGTTGGAT has a switch fluorescence ratio of 1.05.
Sequence GGCGGTCTTA has a switch fluorescence ratio of 0.988.
TATGGGGCT was tested, and the switch fluorescence ratio was 1.
AAGTTTGTAT was tested, and the switch fluorescence ratio was 0.989.
In the case of TTTGAAACTT, the switch fluorescence ratio is reported as 1.05.
Sequence CGGTAGCACT has a switch fluorescence ratio of 1.23.
Sequence TTCCAGGACA has a switch fluorescence ratio of 1.04.
ATACGGCGGG was tested, and the switch fluorescence ratio was 1.
CTCAGCATAT gave a switch fluorescence ratio of 2.67.
GCGGTAGTGC gave a switch fluorescence ratio of 0.968.
For AGATGATGGT, the switch fluorescence ratio was 0.989.
With TTCCAGTGAG the switch fluorescence ratio was 1.02.
CGACGTGGAC was tested, and the switch fluorescence ratio was 4.55.
TGGTTGTAAT showed a switch fluorescence ratio of 0.983.
GTAAGCCCTA showed a switch fluorescence ratio of 0.965.
AAGGCACGTA gave a switch fluorescence ratio of 1.06.
Sequence AGGATATGC has a switch fluorescence ratio of 1.01.
For TGAAGTCATC, the switch fluorescence ratio was 1.03.
For GCGGTTCGGA, the switch fluorescence ratio was 1.02.
AGGCGTAAGA showed a switch fluorescence ratio of 0.983.
GAGAACCTGC was tested, and the switch fluorescence ratio was 1.12.
In the case of ACTTCTATTG, the switch fluorescence ratio is reported as 0.991.
With CGGCACCCGC the switch fluorescence ratio was 1.07.
AATCAGACA gave a switch fluorescence ratio of 1.05.
With CGGTCCTGTT the switch fluorescence ratio was 1.
TTTGTGACGT was tested, and the switch fluorescence ratio was 0.969.
CATCCATCGA showed a switch fluorescence ratio of 1.1.
Work on CAAGTTGTTC yielded a switch fluorescence ratio of 1.04.
ATTCGAGTGG showed a switch fluorescence ratio of 0.996.
In the case of CATGTTCAAA, the switch fluorescence ratio is reported as 0.96.
Work on GGGTACTCAT yielded a switch fluorescence ratio of 1.02.
TGGAATGACT gave a switch fluorescence ratio of 1.01.
With TTCCTCAGGA the switch fluorescence ratio was 1.01.
In the case of GAATCAGTGC, the switch fluorescence ratio is reported as 1.07.
ACCAATATGC gave a switch fluorescence ratio of 1.54.
TTTGAGTTAG showed a switch fluorescence ratio of 0.973.
In the case of TAAAGGCCGA, the switch fluorescence ratio is reported as 1.05.
AGGCATCGAG was tested, and the switch fluorescence ratio was 1.02.
For TTGCGCGGCG, the switch fluorescence ratio was 0.997.
Sequence CCCTTGGGAG has a switch fluorescence ratio of 0.995.
CTAATCGCG was tested, and the switch fluorescence ratio was 0.993.
For TGACCGGGAT, the switch fluorescence ratio was 1.07.
In the case of AATCTCTAGC, the switch fluorescence ratio is reported as 1.
